Hit rate of the full screen: of about 46,000 compounds, about 60 (0.1%) were called active. Another 3% or so got no clear call; they are omitted. Calls come from the whole dose curve; as a rule, active = well fitted inhibition curve with a large enough effect; inconclusive = small, poorly fitted or top-dose-only effect; inactive = no such curve, though single readings can be large or run the other way. The list shows a part of the results.
Assay: Primary qHTS assay for Inhibitors of ovarian cancer metastasis using an organotypic tumor microenvironment (TME) model.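 For Potency: count of GFP cancer cells still attached after washing and fixation.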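 For activity change, negative = inhibition: plate controls were DMSO wells for no effect and tomatine positive control wells for full effect.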 Note: nearly all actives have a fitted effect of over 65% in size.
Conditions: SKOV3ip1-GFP adhesion/invasion on 3D omental model, fluorescence; series mostly up to 45.8 µM; activity change, negative = inhibition: at the top concentration
Outline: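 qHTS, 4-pt dose (0.36-46 umol/L); SKOV3ip1-GFP, 1,200 cells/well, no FBS; primary omental fibroblast/mesothelial co-culture 48 h pre-grown; 2 h RT + 16 h 37 C; PBS wash, 4% PFA; GFP count 488/509 nm.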
Potency is the fitted concentration of half-maximal effect.

Row | Compound | activity change, negative = inhibition | outcome | Potency
1 | CCOC(=O)c1cccc(NC(=O)c2cc(C)nc3c2c(C)nn3-c2ccc(C)cc2)c1 | inactive: 3.49% |  | 
2 | CCOC(=O)c1ccc(NC(=O)C2=C(C)C(=O)OC23CCN(C(C)=O)CC3)cc1 | inactive: -6.15% |  | 
3 | Cc1ccc(Cl)cc1NC(=O)CCn1cnc2ccccc2c1=O | inactive: -0.968% |  | 
4 | Cc1cc(C)cc(NC(=O)C(=O)NCC(c2cccnc2)N2CCOCC2)c1 (stereo unspecified) | inactive: -4.08% |  | 
5 | CCc1cccc(C)c1NC(=O)CSc1n[nH]c(-c2ccccc2)n1 | inactive: -2.42% |  | 
6 | Cn1ncc2c(Nc3cccc(C#N)c3)ncnc21 | inactive: -1.53% |  | 
7 | CCN(CCO)CCCC(C)Nc1ccnc2cc(Cl)ccc12 (stereo unspecified) | inactive: -15.6% |  | 
8 | COc1ccc(Cl)cc1NC(=O)Cn1c(=O)n(Cc2ccc(F)cc2)c(=O)c2cccnc21 | inactive: 0.842% |  | 
9 | Cc1ccc(NC(=O)Cn2c(=O)n(CCC(C)C)c(=O)c3cccnc32)cc1C |  | inactive | 
10 | CCC(C(=O)NCCC(C)C)N(C(=O)Cn1nnc(-c2ccc(C)cc2)n1)c1cccc(O)c1 (stereo unspecified) |  | inactive | 
11 | CC(=O)OCC(=O)[C@@]1(O)CC[C@H]2[C@@H]3CCC4=CC(=O)CC[C@]4(C)[C@@H]3C(=O)C[C@@]21C | inactive: -2.71% |  | 
12 | Cc1ccccc1OCCSc1nnc(-c2cccs2)o1 | inactive: -3.12% |  | 
13 | CCOc1ccc(NC(=O)C(C)n2c(=O)cc(-c3ccccc3)c3c(C)nn(C)c32)cc1 (stereo unspecified) | inactive: 6.25% |  | 
14 | COc1ccccc1N1CCN(C(=O)Cn2c(=O)nc(-c3ccccc3)c3ccccc32)CC1 | inactive: 15.5% |  | 
15 | CC1CN(C(=O)N2CCC(C(=O)NCc3ccccc3F)CC2)c2cc(Cl)ccc2O1 (stereo unspecified) |  | inactive | 
16 | O=C(Nc1ccc(F)c(F)c1)C(c1ccccc1)N1Cc2ccccc2C1=O (stereo unspecified) | inactive: -10.3% |  | 
17 | O=C(NCc1ccccc1Cl)c1ccc2c(c1)NC(=O)C(CS(=O)(=O)Cc1ccc(Cl)cc1)N2 (stereo unspecified) | inactive: 2.34% |  | 
18 | COc1ccccc1-c1nn(CCC(=O)Nc2ccccc2)c2nc(C)cc(C)c12 |  | inactive | 
19 | COc1ccc(CCNC(=O)CN(c2ccccc2)S(=O)(=O)N(C)C)cc1 |  | inactive | 
20 | Cc1ccc2nc(-c3ccc(C)s3)c(Nc3ccc4c(c3)OCCO4)n2c1 |  | inactive | 
21 | CCOC(=O)c1c(C)[nH]c(C)c1S(=O)(=O)N1CCCC(C(=O)N2CCN(c3cccc(Cl)c3)CC2)C1 (stereo unspecified) | inactive: 3.79% |  | 

Row | Compound | activity change, negative = inhibition | outcome | Potency
22 | Cc1nn(C(C)C(=O)NCc2ccco2)c(=O)c2nn(-c3ccccc3)c(C)c12 (stereo unspecified) | inactive: 4.44% |  | 
23 | Cc1ccc2[nH]cc(C(c3ccccc3)c3ccc(Cl)s3)c2c1 (stereo unspecified) | inactive: -7.51% |  | 
24 | COc1ccccc1OCC(=O)NCCS(=O)(=O)N1CCN(c2ccccc2OC)CC1 | inactive: -7.8% |  | 
25 | Cc1cccc2sc(N(Cc3cccnc3)C(=O)c3ccco3)nc12 | inactive: -0.613% |  | 
26 | CCOc1ccccc1NC(=O)Cn1c(=O)n(CCCC(=O)NCc2ccc(C)cc2)c(=O)c2ccccc21 |  | inactive | 
27 | Cc1ccc(C(=O)N2CCN(CCc3ccncc3)CC2)cc1 | inactive: -4.74% |  | 
28 | CCN(CC)CCNC(=O)c1cc2c(-c3cccc(OC)c3)nn(C)c2s1 | inactive: -1.5% |  | 
29 | CCN1CCN(Cc2ccc(-c3cc4c(N[C@H](C)c5ccccc5)ncnc4[nH]3)cc2)CC1 | inactive: 2.87% |  | 
30 | COc1ccc(-c2nc(S(=O)(=O)c3ccccc3)c(N3CCC(C)CC3)o2)cc1 | inactive: -3.6% |  | 
31 | COc1ccc(NC(=O)C(NS(=O)(=O)c2cccc3nsnc23)C(C)C)cc1OC (stereo unspecified) | inactive: -6.65% |  | 
32 | CN1C(=O)c2ccccc2Sc2ccc(NC(=O)N3CCN(c4ccc(F)cc4)CC3)cc21 | inactive: -10.5% |  | 
33 | COc1ccc(S(=O)(=O)Nc2cccc(-c3ccc(N4CCCCC4)nn3)c2)cc1F | inactive: -10.5% |  | 
34 | CCOC(=O)c1c(CSc2ccccc2)n(C)c2cc(Br)c(O)c(CN(C)C)c12 | inactive: -0.11% |  | 
35 | CSc1ccc(CCNC(=O)CN2C(=O)COc3ccc(S(=O)(=O)N4CCCCCC4)cc32)cc1 |  | inactive | 
36 | Cc1ccc(Cl)cc1-n1c(SCC(=O)NCc2ccccc2)nc2n[nH]c(C)c2c1=N | inactive: 0.524% |  | 
37 | COc1ccc(C(=O)NCCc2csc(-c3ccc(Cl)cc3)n2)c(OC)c1 | inactive: 6.37% |  | 
38 | Oc1ccc(NCc2ccccc2OCc2ccccc2)cc1 | inactive: 5.26% |  | 
39 | O=C1c2ccccc2-[n+]2ccc3c([nH]c4ccccc43)c21 |  |  | active: 2350 nM
40 | Cc1ccn(-c2ccc(-c3ncco3)cc2)c(=O)c1-c1ccc2nc(N)ncc2c1 | inactive: -17.7% |  | 
41 | CCOc1ccc(CNC(=O)c2cc3cc(S(=O)(=O)N4CCCCC4)ccc3n2C)cc1 |  | inactive | 
42 | Cc1cc(C)c(NC(=O)CSC2=Nc3ccccc3C3=NC(CC(=O)NCc4cccs4)C(=O)N23)c(C)c1 (stereo unspecified) | inactive: 1.56% |  | 

Row | Compound | activity change, negative = inhibition | outcome | Potency
43 | CCN1CCc2nc3sc(C(=O)Nc4ccccc4OC(F)(F)F)c(N)c3cc2C1 | inactive: -23% |  | 
44 | CCOC(=O)N1CCN(S(=O)(=O)N2CCCC(C(=O)NCc3cc(Br)ccc3OC)C2)CC1 (stereo unspecified) | inactive: 7.76% |  | 
45 | Cc1cc(=O)c2cc(C(=O)Nc3ccc(F)cc3)ccc2[nH]1 | inactive: 18.3% |  | 
46 | CC(C)c1ccc2c(c1)c(SC(C)(C)C)c(CC(C)(C)C(=O)O)n2Cc1ccc(Cl)cc1 | inactive: -15.6% |  | 
47 | Cc1ccc(NC(=O)N2CCN(Cc3nc4ccc(C)cc4o3)CC2)cc1 |  | inactive | 
48 | CC(=O)Nc1c(C)nn(-c2ccccc2)c1N1CCC(C(=O)Nc2ccccc2C(F)(F)F)CC1 | inactive: -4.79% |  | 
49 | O=C(CN1c2ccc(Br)cc2-c2ccccc2S1(=O)=O)N1CCCCC1 | inactive: -4.26% |  | 
50 | COc1cccc(Nc2nc3c(S(=O)(=O)c4cc(C)ccc4C)nnn3c3ccsc23)c1 | inactive: 17.5% |  | 
51 | CCOc1ccc(Nc2oc(/C=C/c3ccc(OC)c(OC)c3)nc2C#N)cc1 | inactive: -25.8% |  | 
52 | Cc1cccn2c(=O)c(C(=O)NC(C)c3ccccc3)c(O)nc12 (stereo unspecified) | inactive: -1.43% |  | 
53 | COc1ccc2c(C)c(CCC(=O)NCc3ccccc3OC)c(=O)oc2c1 | inactive: -6.33% |  | 
54 | COc1ccc(C)cc1-n1nnc(S(=O)(=O)c2ccc(C)cc2)c1C | inactive: 4.89% |  | 
55 | COc1ccc(CNc2oc(/C=C/c3cc(OC)c(OC)c(OC)c3)nc2C#N)cc1 |  | inactive | 
56 | O=C(Cn1c(-c2cccs2)cc2cc(F)ccc21)N1CCN(c2ccccc2)CC1 | inactive: -11.3% |  | 
57 | CCOCCCNC(=O)C(=O)Nc1c2c(nn1-c1ccccc1)CSC2 | inactive: 7.96% |  | 
58 | O=C(COc1ccc(Cl)cc1)NCC(c1ccco1)S(=O)(=O)c1ccc(F)cc1 (stereo unspecified) | inactive: 6.25% |  | 
59 | CC(=O)c1ccc(NC(=O)c2cc3sccc3n2Cc2ccc(Cl)cc2)cc1 | inactive: 6.15% |  | 
60 | CCN(CC)S(=O)(=O)c1ccc(C(=O)NC2CC(=O)N(c3ccc(OC)c(OC)c3)C2)cc1 (stereo unspecified) |  | inactive | 
61 | O=C(c1ccccc1Cl)N1CCC(c2nc3ccccc3s2)CC1 | inactive: 0.687% |  | 
